Out of some 340,000 compounds screened, about 12,000 (3.5%) were called active. Inconclusive results, whose numbers are uncertain, are shown with a selection of clear calls. Calls follow the shape of the dose curve; as a rule, active = well fitted inhibition curve with a large enough effect; inconclusive = small, poorly fitted or top-dose-only effect, or another doubt; inactive = no such curve, though single readings can be large or run the other way. No potency is given beside an inconclusive call; the fits are too rough.
Assay: qHTS Assay for Inhibitors of Hepatitis C Virus (HCV)
Conditions: Huh7.5.1 HCVcc-Cre (HCVcc is cell-culture hepatitis C virus) infection, luciferase reporter, 44 h; activity change, negative = inhibition: at 41.8 µM (top of the series) unless noted
In short: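 A cell-based infection assay in which seeded cells (1,000 per well) receive test compound after 4 h, are inoculated with HCVcc-Cre at approximately 0.5 moi, and are incubated 44 h before luminescence detection.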
% is scaled to controls: 0 for no effect and ±100 for the full control effect; potency is read from the fitted curve at half-maximal effect; tags tell the direction and shape of the fitted curve.

Row | Structure (SMILES) | activity change, negative = inhibition | Potency
1 | CN(Cc1ccc(OCC(O)CN(C)Cc2ccccc2)cc1)Cc1nccn1C (configuration not stated) | inactive: -8.95% | 
2 | Cc1noc(C)c1COc1ccc(C(=O)N(C)CCOc2ccccc2)cc1 | inactive: -8.82% | 
3 | COC(=O)c1cc2c(ccn2-c2ccc(F)cc2)n1Cc1ccc(OC(C)=O)cc1 |  | active: 8.91 µM
4 | COc1cccc(NC2c3ccccc3C(=O)N2Cc2ccccc2Cl)c1 (configuration not stated) |  | inconclusive [inhibitor, partial curve]
5 | CC(C)(C)C(=O)Nc1nnc(CCc2ccccc2)s1 | inactive: 27% | 
6 | COc1ccc(Cl)cc1NS(=O)(=O)c1ccc(S(=O)(=O)N2CCCC2)cc1 |  | inconclusive [inhibitor, partial curve]
7 | CCCCNC(=O)c1ccc2nc(-c3ccco3)c(-c3ccco3)nc2c1 |  | inactive
8 | C#CCOCCOCCOCCNc1nc(N2CCN(C(=O)Cn3cc(CCCN=C(N)N)nn3)CC2)nc(N2CCN(C(=O)[C@H]([C@@H](C)O)n3cc(CCCCN)nn3)CC2)n1 | inactive: 14.3% | 
9 | O=C(Cc1cc(=O)[nH][nH]1)N/N=C/c1c(Cl)cccc1Cl |  | inactive
10 | COc1ccc(-c2cc(C(F)(F)F)n3nc(C(=O)NCCCn4ccnc4)cc3n2)cc1 |  | inconclusive [inhibitor, partial curve, poor fit]
11 | CCOc1ccc(N(CC(=O)Nc2cc(C)ccc2C)S(=O)(=O)c2c(C)[nH]c(=O)[nH]c2=O)cc1 | inactive: 28% | 
12 | Nc1ccc(C(=O)N/N=C/c2cn(Cc3ccc(F)cc3)c3ccccc23)cc1 | inactive: -16.9% | 
13 | O=C(CCc1nnc(Cc2c[nH]c3ccccc23)o1)NC(C1CC1)C1CC1 | inactive: -28.5% | 
14 | COc1c(C)cccc1C(=O)Nc1ccc(N2CCOCC2)c(Cl)c1 | inactive: -28.9% | 
15 | COc1ccccc1N1CCN(C(=O)c2ccccc2Oc2ccccc2)CC1 |  | inconclusive [inhibitor, single point]
16 | CCN(Cc1nc(-c2ccc(OC)cc2)no1)C(=O)c1ccoc1C | inactive: 0.513% | 
17 | N#CCSc1ncnc2c1cnn2CCO |  | inconclusive [inhibitor, single point]
18 | O=C(NCc1ccco1)C1CCCN(S(=O)(=O)c2cc(Cl)ccc2Cl)C1 (configuration not stated) |  | inconclusive [inhibitor, single point]
19 | CC1CN(S(=O)(=O)c2cccc(C(=O)N(CCc3ccccc3)Cc3ccccc3)c2)CC(C)O1 (configuration not stated) |  | inconclusive [inhibitor, single point]
20 | CCC(C)c1ccc(NC(=O)C/C(C)=N/NC(=O)c2cnccn2)cc1 (configuration not stated) | inactive: 19.9% | 
21 | O=C(NCc1ccc(Cl)cc1)c1ccc2ccccc2n1 | inactive: -18.2% | 
22 | CCC(=NCCc1ccccc1)c1c(O)n(C)c(=O)n(C)c1=O |  | active: 8.91 µM

Source: PubChem BioAssay AID651820 (National Center for Advancing Translational Sciences (NCATS), 2012)
